According to the antibiotic and cytotoxicity screens of Wong et al. (2023):
The list shows a part of the results.

Experiments:
HSkMC = human skeletal muscle cells; assay: cytotoxicity call (relative viability < 0.9); conditions: 10 µM
S. aureus RN4220 = assay: growth inhibition call (relative growth <= 0.2); conditions: 50 µM

| SMILES | cytotoxicity call (HSkMC) | growth inhibition call (S. aureus RN4220) |
| --- | --- | --- |
| COCCNC(=O)C[C@@H]1CC[C@@H]2[C@H](COc3ccc(NC(=O)Nc4cccc(F)c4)cc3C(=O)N2C)O1 | inactive | inactive |
| C[C@@H]1CN([C@H](C)CO)C(=O)c2cc(NC(=O)NC3CCCCC3)ccc2O[C@@H](C)CCCCO[C@H]1CN(C)Cc1ccccc1 | inactive | inactive |
| C=CCN1C(=O)[C@@]2(O[C@H](CCOC(=O)NCCCCCC(=O)NO)[C@@H]([Si](C)(C)c3ccc(OC)cc3)[C@@H]2C)c2cc(I)ccc21 | inactive | inactive |
| C[C@@H]1CCCCO[C@H](CN(C)C(=O)NC2CCCCC2)[C@@H](C)CN([C@H](C)CO)C(=O)c2cc(NC(=O)Nc3ccccc3)ccc2O1 | inactive | inactive |
| C[C@H](CO)N1C[C@H](C)[C@@H](CN(C)Cc2ccccc2)OCCCC[C@H](C)Oc2ccc(NC(=O)Nc3cccc4ccccc34)cc2C1=O | active | inactive |
| C[C@@H]1CN([C@H](C)CO)C(=O)c2cc(NC(=O)Cc3ccccc3)ccc2O[C@@H](C)CCCCO[C@@H]1CN(C)Cc1ccc(Cl)c(Cl)c1 | inactive | inactive |
| O=C(C[C@H]1CC[C@@H]2[C@H](COC[C@H](O)CN2C(=O)C2CC2)O1)NCc1ccncc1 | inactive | inactive |
| CCOC(=O)c1ccc(N2NC(=O)/C(=C/c3ccc([N+](=O)[O-])o3)C2=O)cc1 | inactive | inactive |
| COc1ccc(S(=O)(=O)Nc2ccc3c(c2)C(=O)N(C)C[C@@H](OC)[C@H](C)CN(C(=O)NC(C)C)[C@H](C)CO3)cc1 | inactive | inactive |
| Cc1ccc(S(=O)(=O)Nc2ccc3c(c2)C(=O)N([C@@H](C)CO)C[C@@H](C)[C@H](CN(C)C(=O)C2CCCCC2)OCCCC[C@@H](C)O3)cc1 | inactive | inactive |
| C[C@H](CO)N1C[C@H](C)[C@H](CN(C)Cc2ccc3c(c2)OCO3)Oc2ccc(NC(=O)C3CC3)cc2CC1=O | inactive | inactive |
| Cc1noc(C)c1NC(=O)Nc1ccc2c(c1)CC(=O)N([C@H](C)CO)C[C@H](C)[C@H](CN(C)CC1CC1)O2 | inactive | inactive |
| O=c1[nH]snc1N1CCCCC1 | inactive | inactive |
| CC(C)NC(=O)[C@@H]1c2ccccc2C(=O)N(Cc2cc(C(F)(F)F)cc(C(F)(F)F)c2)[C@H]1c1ccc(CO)cc1 | inactive | inactive |
| CC(=O)Nc1nc(C(=O)O)cs1 | inactive | inactive |
| C[C@H]1CCCCO[C@H](CN(C)C(=O)Nc2cccc3ccccc23)[C@@H](C)CN([C@@H](C)CO)C(=O)c2cc(NC(=O)NC3CCCCC3)ccc2O1 | inactive | inactive |
| C[C@@H]1CCCCO[C@H](CN(C)Cc2ccc(Cl)c(Cl)c2)[C@H](C)CN([C@@H](C)CO)C(=O)c2cc(NC(=O)NC3CCCCC3)ccc2O1 | inactive | inactive |
| C[C@H](CO)N1C[C@H](C)[C@H](CN(C)S(=O)(=O)c2cn(C)cn2)Oc2ccc(NS(=O)(=O)c3cn(C)cn3)cc2CC1=O | inactive | inactive |
| C[C@@H]1CN([C@@H](C)CO)C(=O)c2cc(NC(=O)Nc3ccccc3)ccc2O[C@@H](C)CCCCO[C@H]1CN(C)C(=O)OC(C)(C)C | inactive | inactive |
| COc1ccc(NC(=O)N(C)C[C@H]2Oc3ncc(C#CC(C)C)cc3C(=O)N([C@H](C)CO)C[C@H]2C)cc1 | inactive | inactive |
| C[C@@H]1CN([C@@H](C)CO)C(=O)c2cc(NS(=O)(=O)c3cn(C)cn3)ccc2O[C@@H](C)CCCCO[C@H]1CN(C)S(=O)(=O)c1cccs1 | inactive | inactive |
| Cc1ccc(S(=O)(=O)Nc2cccc3c2O[C@@H](CN(C)Cc2ccc(Cl)c(Cl)c2)[C@@H](C)CN([C@@H](C)CO)C3=O)cc1 | inactive | inactive |
| CN(C)CCCNC(=O)C[C@H]1C=C[C@H](NS(=O)(=O)c2ccccc2)[C@H](CO)O1 | inactive | inactive |
| COc1ccc(S(=O)(=O)Nc2ccc3c(c2)C(=O)N([C@@H](C)CO)C[C@H](C)[C@H](CN(C)Cc2ccc(-c4ccccc4)cc2)O3)cc1 | inactive | inactive |
| O=c1cn[nH]c(NC2CCCC2)n1 | inactive | inactive |
